# Laboratory results: the supplement of paper PMC7826260
# This is one part of the list. One pool of 16,384 single-stranded DNAs met each Rep nickase domain in vitro at 3 µM enzyme and 37 °C for 1 h; the strands have 90 letters, of which the middle is given. The score is log2 (uncut reads / reads without enzyme); the lower, the more was cut; hits are not called. Reads are scaled to the total, so uncut sequences can rise above 0 when many others are cut.
# Legend:
# Experiment in all cases: uncleaved DNA left, log2 of reads against the no-enzyme library (log2 ratio); higher = less cleavage (more negative = more Rep cleavage of the k-mer); sequences stand for … in CTCGTCCG…ACCGGAGA
# [1] = tested on: T1, Rep nickase domain of Muscovy duck circovirus
# T1 sequence (residues 1-111, tag not shown): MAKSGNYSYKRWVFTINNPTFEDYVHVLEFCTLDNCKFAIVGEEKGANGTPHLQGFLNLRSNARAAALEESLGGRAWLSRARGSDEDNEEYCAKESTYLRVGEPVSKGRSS
# Protocol: (§1)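 A pool of 90-nt single-stranded DNAs with seven random bases just before the constant AC of the nick site (name = the seven bases) was cut by 3 µM recombinant His6-SUMO-tagged Rep nickase domain (300 nM DNA, 50 mM HEPES pH 8.0, 50 mM NaCl, 1 mM MnCl2, 1 h, 37 °C, three replicates). Uncut DNA was amplified and sequenced.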
# [2] = tested on: T2, Rep nickase domain of banana bunchy top virus
# T2 sequence (residues 1-94, tag not shown): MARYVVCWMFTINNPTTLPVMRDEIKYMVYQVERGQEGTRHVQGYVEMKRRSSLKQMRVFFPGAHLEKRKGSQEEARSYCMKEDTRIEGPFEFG
# Protocol: as §1
# [3] = tested on: T3, Rep nickase domain of cabbage leaf curl virus
# T3 sequence (residues 1-116, tag not shown): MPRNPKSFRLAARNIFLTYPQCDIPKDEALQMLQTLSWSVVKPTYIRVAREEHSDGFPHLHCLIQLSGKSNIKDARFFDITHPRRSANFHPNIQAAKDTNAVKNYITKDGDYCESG
# Protocol: as §1
# [4] = tested on: T4, Rep nickase domain of chickpea chlorotic dwarf virus
# T4 sequence (residues 1-124, tag not shown): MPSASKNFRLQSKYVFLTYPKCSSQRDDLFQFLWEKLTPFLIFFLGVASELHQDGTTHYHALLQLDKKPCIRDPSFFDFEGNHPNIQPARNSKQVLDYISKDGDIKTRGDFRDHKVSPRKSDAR
# Protocol: as §1
# [5] = tested on: T5, Rep nickase domain of faba bean necrotic yellows virus
# T5 sequence (residues 1-98, tag not shown): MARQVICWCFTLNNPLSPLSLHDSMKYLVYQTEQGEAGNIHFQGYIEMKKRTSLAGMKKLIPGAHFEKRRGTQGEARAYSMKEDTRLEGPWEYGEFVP
# Protocol: as §1
# [6] = tested on: T6, Rep nickase domain of maize striate mosaic virus
# T6 sequence (residues 1-117, tag not shown): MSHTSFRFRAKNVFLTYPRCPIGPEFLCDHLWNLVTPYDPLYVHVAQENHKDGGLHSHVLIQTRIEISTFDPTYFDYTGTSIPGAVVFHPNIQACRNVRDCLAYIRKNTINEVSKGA
# Protocol: as §1
# [7] = tested on: T7, Rep nickase domain of porcine circovirus 2
# T7 sequence (residues 2-116, tag not shown): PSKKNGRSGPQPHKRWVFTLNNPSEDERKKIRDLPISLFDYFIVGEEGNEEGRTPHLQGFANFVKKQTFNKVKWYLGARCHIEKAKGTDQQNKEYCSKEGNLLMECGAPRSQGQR
# Protocol: as §1
# [8] = tested on: T8, Rep nickase domain of tomato golden mosaic virus
# T8 sequence (residues 1-124, tag not shown): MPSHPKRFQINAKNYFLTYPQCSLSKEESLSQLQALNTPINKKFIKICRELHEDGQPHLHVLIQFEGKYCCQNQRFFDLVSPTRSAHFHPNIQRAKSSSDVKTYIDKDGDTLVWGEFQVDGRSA
# Protocol: as §1
# [9] = tested on: T9, Rep nickase domain of tomato yellow leaf curl virus
# T9 sequence (residues 1-136, tag not shown): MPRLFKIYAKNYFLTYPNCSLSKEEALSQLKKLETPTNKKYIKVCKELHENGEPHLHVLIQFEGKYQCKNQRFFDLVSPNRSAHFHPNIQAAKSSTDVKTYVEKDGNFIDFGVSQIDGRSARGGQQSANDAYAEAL
# Protocol: as §1
# [10] = tested on: T10, Rep nickase domain of wheat dwarf virus
# T10 sequence (residues 1-137, tag not shown): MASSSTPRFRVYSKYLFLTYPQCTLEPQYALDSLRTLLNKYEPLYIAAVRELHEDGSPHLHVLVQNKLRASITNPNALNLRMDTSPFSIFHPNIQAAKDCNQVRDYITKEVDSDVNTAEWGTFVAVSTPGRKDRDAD
# Protocol: as §1
Sequence,uncleaved DNA left (log2) [1],uncleaved DNA left (log2) [2],uncleaved DNA left (log2) [3],uncleaved DNA left (log2) [4],uncleaved DNA left (log2) [5],uncleaved DNA left (log2) [6],uncleaved DNA left (log2) [7],uncleaved DNA left (log2) [8],uncleaved DNA left (log2) [9],uncleaved DNA left (log2) [10]
CATTTAT,-3.43,-3.56,-0.223,-2,-0.0851,-0.79,-3.4,-0.0664,-0.0828,-0.0315
GGGTCGG,0.124,0.0958,0.875,1.9,-0.00908,2.28,0.273,0.111,0.0279,0.215
ATCAGAT,0.0127,-0.0827,0.116,0.996,-0.00278,1.06,0.129,0.109,-0.0346,0.0306
GCTAACT,-0.0399,0.103,-0.185,-1.89,0.0419,-0.0877,-0.153,-0.00577,0.0671,-0.0767
GGTTTAA,0.0967,0.153,0.41,0.992,0.064,1.8,0.113,0.183,0.187,0.248
CCGGGGC,-0.105,-0.157,0.762,1.14,-0.111,2.11,0.096,-0.0176,-0.0912,-0.0799
TGCATTT,-0.0457,-0.054,-0.119,-1.64,-0.149,-0.68,-0.28,-0.174,0.0375,-0.0426
CCAGCCG,0.02,-0.0103,-0.742,-0.26,0.157,-0.733,0.132,0.0052,-0.146,-0.0527
TATGTTG,-0.058,-0.0772,-0.477,-0.661,-0.0596,-1.02,0.0302,-0.161,-0.00185,-0.139
CATCGCA,-0.0729,-0.00986,-0.401,-0.879,0.0536,-1.25,0.0592,0.0148,0.0792,-0.102
CATCCGT,0.0285,-0.0474,-0.454,-1.2,0.0138,-1.12,0.0646,-0.127,-0.0643,-0.185
TGGGACC,-0.0779,0.0192,0.911,1.96,0.0654,2.2,0.235,-0.0255,0.00224,0.139
ATCTTTG,0.0913,0.0984,-0.518,-0.437,0.101,-1.03,0.213,0.0813,0.0445,0.146
CCGAGCT,0.148,0.203,0.192,0.765,0.127,0.534,-0.0221,0.0917,0.015,-0.124
CCCACGC,0.0256,0.00768,0.0499,-0.237,-0.0743,-0.579,0.00716,-0.0317,-0.119,-0.061
TTGGGAT,-0.112,-0.0566,0.157,1.52,-0.0933,1.77,0.0803,-0.0928,-0.0573,0.0552
ACTCGAA,-0.0515,0.00685,-0.242,-0.19,0.0978,-0.886,0.131,0.0709,-0.0396,0.0299
CCGATTT,-0.184,-0.209,-0.237,-1.97,-0.112,-0.496,-0.709,-0.207,-0.17,-0.362
GTTAGTA,0.0714,0.106,0.449,0.919,0.0679,1.89,0.273,0.191,0.212,0.179
AGCCGGG,0.0174,0.0958,-0.0321,0.168,-0.00553,0.0399,0.214,-0.0432,0.0606,0.0836

Sequence,uncleaved DNA left (log2) [1],uncleaved DNA left (log2) [2],uncleaved DNA left (log2) [3],uncleaved DNA left (log2) [4],uncleaved DNA left (log2) [5],uncleaved DNA left (log2) [6],uncleaved DNA left (log2) [7],uncleaved DNA left (log2) [8],uncleaved DNA left (log2) [9],uncleaved DNA left (log2) [10]
CCCAACA,-0.135,-0.0483,-0.247,-2.3,-0.124,-0.713,-0.162,-0.065,-0.0965,-0.161
AAACGGT,-0.0421,-0.127,0.126,0.976,-0.0434,1.48,-0.0761,-0.0299,-0.183,-0.102
AAGAGAA,0.154,0.12,0.206,1.1,0.121,1.14,0.0849,0.139,-0.0217,0.117
TCTCTCT,0.0608,-0.17,0.0564,-1.93,0.0575,-0.247,-0.221,-0.0594,-0.0223,-0.0936
ACCGTGT,-0.168,-0.0539,-0.39,-0.545,0.00504,-1.04,-0.0122,-0.0604,-0.00631,-0.219
GTCAGAA,0.267,0.166,0.487,0.968,0.217,1.67,0.251,0.185,0.164,0.184
GGGAAGG,0.0634,0.062,0.845,1.89,-0.0667,2.12,0.249,-0.000822,-0.0173,0.121
GCGTAGC,-0.0184,-0.0809,0.0644,0.448,-0.09,0.26,-0.015,0.0111,-0.0738,-0.0343
TACAGAC,0.0735,0.126,0.065,-0.115,0.122,-0.242,0.222,-0.0365,0.0502,0.156
GAATCAA,0.0055,0.126,0.212,0.619,0.0731,1.04,0.0684,0.0713,0.235,0.174
ATAGAGC,0.0446,0.125,-0.247,-0.311,0.135,-1.19,0.136,0.0594,0.0183,0.0296
AGACCGA,-0.0563,-0.0209,0.381,0.682,-0.136,0.989,-0.0564,-0.118,-0.126,-0.0616
TAAAATA,-0.0505,-0.109,-2.96,-2.86,-0.0686,-1.15,-0.194,-0.341,-0.0671,-2
TCCGTTA,0.176,0.0225,0.17,-0.399,0.095,0.104,-0.00237,0.0276,0.0711,0.0745
TGATATC,0.025,0.0629,0.34,0.513,0.0065,0.56,0.0452,0.0569,0.0191,0.09
TGATTAC,0.07,0.00585,0.192,-1.06,0.0116,0.401,-0.0188,0.0548,0.0245,0.00294
TGATCGA,0.0769,-0.0401,-0.242,-0.575,-0.0177,-0.953,-0.0137,0.00674,-0.00758,-0.0265
CTACGCA,-0.15,-0.055,-0.322,-0.715,0.0314,-0.824,0.00352,-0.133,-0.0621,0.0149
CGTGGCG,0.0991,0.0784,-0.458,0.603,0.145,-0.153,0.19,0.055,0.289,0.0733
ATTAGAA,-0.0517,-0.0216,-0.0446,-0.0842,0.00643,-0.755,-0.111,-0.0139,0.00725,-0.0471

Sequence,uncleaved DNA left (log2) [1],uncleaved DNA left (log2) [2],uncleaved DNA left (log2) [3],uncleaved DNA left (log2) [4],uncleaved DNA left (log2) [5],uncleaved DNA left (log2) [6],uncleaved DNA left (log2) [7],uncleaved DNA left (log2) [8],uncleaved DNA left (log2) [9],uncleaved DNA left (log2) [10]
GTTGCAA,0.195,0.166,0.257,0.881,0.0413,1.79,0.219,0.195,0.117,0.223
GCACGCC,-0.0803,-0.111,-0.253,-0.0418,-0.127,-0.422,0.0162,-0.0357,-0.123,-0.11
AAAATTT,-0.325,-0.307,-3.76,-3.48,0.0656,-2.17,-3.56,-1.74,-0.0276,-3.47
TTCCGTC,0.0808,-0.191,0.11,-0.229,-0.0569,-0.628,-0.0165,-0.234,-0.15,-0.156
GTAGACA,0.106,0.253,0.693,1.6,0.0515,2.09,0.271,0.0821,0.0941,0.137
TGCTGGA,0.0555,-0.0501,0.0203,0.126,-0.0675,0.0701,-0.0951,-0.101,-0.102,0.00854
GGCGACG,0.0615,0.108,0.176,0.682,0.0562,1.7,0.152,0.161,0.0752,0.0586
TTGCTAT,-0.197,-0.175,-0.522,-0.917,-0.127,-1.12,-0.136,-0.204,-0.0446,-0.175
TCGTGTA,-0.00515,0.0754,0.0595,-0.416,-0.0253,-0.0748,-0.935,0.131,0.0415,-0.0658
TGTACCG,-0.0629,-0.0429,-0.805,-0.974,0.00744,-1.03,0.0125,-0.0762,-0.129,-0.148
ATTTGGT,-0.571,-0.425,-0.123,-0.0856,-0.0211,-0.256,-1.55,-0.1,-0.0401,-0.0872
TAATCCG,0.0419,-0.00231,-1.51,-2.02,-0.0145,-1.17,0.0973,-0.078,-0.0443,-0.223
CTCACCC,-0.172,-0.0713,-0.074,-0.679,-0.12,-0.416,-0.469,-0.168,-0.071,-0.0444
CGCGCTT,-0.0634,-0.0842,-0.0849,-0.624,-0.138,-0.187,-0.218,-0.0787,-0.0791,-0.182
CGAACGA,-0.0691,-0.00931,-0.134,-0.103,-0.0646,-0.468,0.0177,-0.128,-0.137,-0.0586
TCATCCT,-1.32,-0.12,-0.504,-2.95,-0.0899,-0.629,-1.32,-0.189,-0.0792,-0.113
TTGTGTT,-2.76,-1.79,-1.02,-2.65,-2.23,-1.2,-3.11,-0.429,-0.0941,-0.538
AGTGATT,0.000558,-0.108,0.0778,0.403,0.123,1.48,-2.79,0.16,0.000941,0.102
